# Counter-ions that a name gives are not always drawn. Like-named read-outs stand apart in the source and are kept apart here.
# Columns and labels:
# human NTCP [1] = target: T1, human NTCP (Homo sapiens, UniProt Q14973); assay: Screening taurocholate uptake assay (96-well, [14C]taurocholate, 10 µM drug); conditions: for remaining activity at 10 µM: 10 min, read-out: %NTCP activity
# T1 sequence (Q14973 1-349): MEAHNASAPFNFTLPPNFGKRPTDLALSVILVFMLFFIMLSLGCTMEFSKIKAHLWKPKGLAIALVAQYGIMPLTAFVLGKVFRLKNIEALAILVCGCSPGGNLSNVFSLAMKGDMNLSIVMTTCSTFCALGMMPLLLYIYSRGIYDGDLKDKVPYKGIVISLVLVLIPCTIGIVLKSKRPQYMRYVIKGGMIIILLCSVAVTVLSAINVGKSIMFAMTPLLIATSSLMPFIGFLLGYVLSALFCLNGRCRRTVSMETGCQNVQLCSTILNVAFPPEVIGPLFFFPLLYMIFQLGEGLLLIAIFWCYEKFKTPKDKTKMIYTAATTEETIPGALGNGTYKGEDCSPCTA
# human NTCP [2] = target: T1, human NTCP; assay: Screening fluorescent competitive Myrcludex B-FITC binding assay (96-well, 10 µM drug)
# [3] = Prestwick library screen, 10 µM drug, Myrcludex B-FITC binding
# [4] = screen, 10 µM drug, [14C]taurocholate uptake
# [5] = screen, 10 µM drug, Myrcludex B-FITC binding
# [6] = Prestwick library screen, 10 µM drug, [14C]taurocholate uptake
# [7] = 0.5 h, read-out: %NTCP binding, screen, 10 µM drug, Myrcludex B-FITC binding
SMILES,remaining activity at 10 µM (human NTCP [1]),"remaining activity at 10 µM (human NTCP [2]; 0.5 h, read-out: %NTCP binding)",other results
C1CCC(C(CC2CCCCN2)C2CCCCC2)CC1 (centres unmarked) [Perhexiline maleate],28.4%,49%,
Nc1ccc(S(=O)(=O)Nc2ccc(Cl)nn2)cc1 [Sulfachloropyridazine],138%,71.4%,
CN1CCC(=C2c3ccccc3Sc3ccccc32)CC1 [Pimethixene maleate],35.1%,75.4%,
CCC1NC(=O)c2cc(S(N)(=O)=O)c(Cl)cc2N1 (centres unmarked) [Quinethazone],89.8%,83.1%,
COc1ccccc1N1CCN(CCCNc2cc(=O)n(C)c(=O)n2C)CC1 [Urapidil hydrochloride],61%,120%,
Clc1ccc2c(c1)C(N1CCNCC1)=Nc1ccccc1O2 [Amoxapine],57.7%,86.5%,
Cn1nnc2c(C(N)=O)ncn2c1=O [Temozolomide],119%,90.1%,
CS(=O)(=O)O.OC(CCN1CCCCC1)(c1ccccc1)c1ccccc1 [Pridinol methanesulfonate salt],,,%NTCP activity (human NTCP [1]): 108.898%; %NTCP binding (human NTCP [2]; [3]): 66.5192%
CN1CCCC(n2nc(Cc3ccc(Cl)cc3)c3ccccc3c2=O)CC1 (centres unmarked) [Azelastine HCl],131%,83.2%,
C[C@]12COC(=O)C[C@@H]1CC[C@@H]1[C@@H]2CC[C@@]2(C)[C@H]1CC[C@]2(C)O [Oxandrolone],63.2%,87.4%,
C[C@H]1C[C@H]2[C@@H]3CCC4=CC(=O)C=C[C@]4(C)[C@@]3(F)[C@@H](O)C[C@]2(C)[C@@]1(O)C(=O)CO [Betamethasone],81%,64.4%,
NC(=O)CN1CCCC1=O [Piracetam],79.8%,,"remaining activity at 10 µM (human NTCP [2]; 0.5 h, read-out: %NTCP binding, Prestwick library screen, Myrcludex B-FITC binding, 10 µM drug): 78.2%"
OC(CCN1CCCCC1)(c1ccccc1)C1CC2C=CC1C2 (centres unmarked) [Biperiden hydrochloride],56.7%,78%,
COCCCC/C(=N\OCCN)c1ccc(C(F)(F)F)cc1 [Fluvoxamine maleate],96%,87.7%,
CN(C)CCN(Cc1ccc(Cl)cc1)c1ccccn1.Cl [Chloropyramine hydrochloride],,,%NTCP activity (human NTCP [1]; [4]): 88.7618%; %NTCP binding (human NTCP [2]; [5]): 111.615%
Cc1ccc(S(=O)(=O)NC(=O)NN2CCCCCC2)cc1 [Tolazamide],52.7%,79.8%,
Cc1cccc(N(C)C(=S)Oc2ccc3ccccc3c2)c1 [Tolnaftate],136%,106%,
Cc1ccc(C)c(OCCCC(C)(C)C(=O)O)c1 [Gemfibrozil],113%,58.1%,
O=C(O)CN(CCN(CC(=O)O)CC(=O)O)CCN(CC(=O)O)CC(=O)O [Pentetic acid],63.6%,87.9%,
C[N+]1(CCCCC[N+]2(C)CCCC2)CCCC1.O=C([O-])C(O)C(O)C(=O)O.O=C([O-])C(O)C(O)C(=O)O [Pentolinium bitartrate],,,%NTCP activity (human NTCP [1]): 114.556%; %NTCP binding (human NTCP [2]; [5]): 76.0867%
Cc1nc2ccc(CN(C)c3ccc(C(=O)N[C@@H](CCC(=O)O)C(=O)O)s3)cc2c(=O)[nH]1 [Raltitrexed],71.1%,80%,
Nc1nc(/C(=C/CC(=O)O)C(=O)N[C@@H]2C(=O)N3C(C(=O)O)=CCS[C@H]23)cs1 [Ceftibuten],124%,83.9%,
COc1cc(C(=O)N2CCOCC2)cc(OC)c1OC [Trimetozine],113%,105%,
CCN(CC)C(=O)C1(c2ccccc2)CC1CN.Cl (centres unmarked) [Milnacipran hydrochloride],,,%NTCP activity (human NTCP [1]): 134.458%; %NTCP binding (human NTCP [2]; [3]): 57.458%
Nc1ccn([C@@H]2O[C@H](CO)[C@@H](O)[C@@H]2O)c(=O)n1 [Cytarabine],139%,82.8%,
Cc1ccccc1N1C(=O)c2cc(S(N)(=O)=O)c(Cl)cc2NC1C (centres unmarked) [Metolazone],40.8%,99.8%,
NCC[C@H](O)C(=O)N[C@@H]1C[C@H](N)[C@@H](O[C@H]2O[C@H](CN)[C@@H](O)[C@H](O)[C@H]2O)[C@H](O)[C@H]1O[C@H]1O[C@H](CO)[C@@H](O)[C@H](N)[C@H]1O [Amikacin hydrate],,,%NTCP activity (human NTCP [1]; [6]): 116.214%; %NTCP binding (human NTCP [2]; [3]): 71.4906%
OC(CCN1CCCC1)(c1ccccc1)C1CCCCC1 (centres unmarked) [Procyclidine hydrochloride],91.4%,101%,

SMILES,remaining activity at 10 µM (human NTCP [1]),"remaining activity at 10 µM (human NTCP [2]; 0.5 h, read-out: %NTCP binding)",other results
Nc1ccccc1S(N)(=O)=O [2-Aminobenzenesulfonamide],49.5%,124%,
C=C1C(=O)O[C@H]2[C@H]1CC/C(C)=C/CC[C@@]1(C)O[C@@H]21 [Parthenolide],121%,31.8%,
NS(=O)(=O)c1cc2c(cc1Cl)NCNS2(=O)=O [Hydrochlorothiazide],138%,113%,
Cc1onc(-c2c(Cl)cccc2Cl)c1C(=O)N[C@@H]1C(=O)N2[C@@H]1SC(C)(C)[C@@H]2C(=O)[O-].O.[Na+] [Dicloxacillin sodium salt hydrate],,,%NTCP activity (human NTCP [1]; [6]): 37.3679%; %NTCP binding (human NTCP [2]; [3]): 48.1821%
Cc1cc(C(C)(C)C)cc(C)c1CC1=NCCN1 [Xylometazoline hydrochloride],107%,,remaining activity at 10 µM (human NTCP [2]; [7]): 69.2%
Cc1ncc([N+](=O)[O-])n1CCO [Metronidazole],59.9%,82.1%,
CC(=O)OCC(=O)[C@@]12N=C(C)O[C@@H]1C[C@H]1[C@@H]3CCC4=CC(=O)C=C[C@]4(C)[C@H]3[C@@H](O)C[C@@]12C [Deflazacort],97.8%,108%,
N=C(N)N/N=C/c1c(Cl)cccc1Cl [Guanabenz acetate],35.5%,98.2%,
C1N2CN3CN1CN(C2)C3 [Methenamine],127%,62.3%,
COC(=O)C1=C(C#N)NC(C)=C(C(=O)OC(C)C)C1c1cccc([N+](=O)[O-])c1 (centres unmarked) [Nilvadipine],65.9%,86.8%,
CN(C)CC/C=C1/c2ccccc2Sc2ccc(Cl)cc21 [Chlorprothixene hydrochloride],71.3%,70.3%,
CC(=O)OCC(=O)[C@@]1(O)CC[C@H]2[C@@H]3CCC4=CC(=O)CC[C@]4(C)[C@H]3[C@@H](O)C[C@@]21C [Cortisol acetate],,,"%NTCP activity (human NTCP [1]): 62.45%; %NTCP binding (human NTCP [2]; Prestwick library screen, Myrcludex B-FITC binding, 10 µM drug): 118.411%"
Nc1nc(O)c2[nH]nnc2n1 [Azaguanine-8],,,%NTCP activity (human NTCP [1]; [6]): 172.189%; %NTCP binding (human NTCP [2]; [3]): 121.626%
CCCC(CCC)C(=O)O [Valproic acid],113%,94.9%,
CC1(C)S[C@@H]2[C@H](NC(=O)Cc3ccccc3)C(=O)N2[C@H]1C(=O)O [Benzylpenicillin sodium],105%,72.1%,
CN(C)CC/C=C1\c2ccccc2CSc2ccccc21 [Dosulepin hydrochloride],54.9%,78.6%,
O=C(O)Cc1ccc(-c2ccccc2)cc1 [Felbinac],57.4%,117%,
[H]/N=C(/N)NS(=O)(=O)c1ccc(N)cc1 [Sulfaguanidine],92.8%,128%,
Cc1cnc(C(=O)NCCc2ccc(S(=O)(=O)NC(=O)NC3CCCCC3)cc2)cn1 [Glipizide],47.4%,92.8%,
COc1ccccc1OCC(O)CN1CCN(CC(=O)Nc2c(C)cccc2C)CC1 (centres unmarked) [Ranolazine],93.3%,93.2%,
CO[C@]12C[C@@H](COC(=O)c3cncc(Br)c3)CN(C)[C@@H]1Cc1cn(C)c3cccc2c13 [Nicergoline],56.1%,82.1%,
CCN(CC)CCOCCOC(=O)C1(c2ccccc2)CCCC1 [Carbetapentane citrate],85.8%,76.4%,
CO/N=C(\C(=O)N[C@@H]1C(=O)N2C(C(=O)O)=C(COC(C)=O)CS[C@H]12)c1csc(N)n1 [Cefotaxime sodium salt],114%,73.6%,
Cc1ccsc1/C=C/C1=NCCCN1C [Morantel tartrate],126%,,remaining activity at 10 µM (human NTCP [2]; [7]): 111%
O=C1CN(/N=C/c2ccc(-c3ccc([N+](=O)[O-])cc3)o2)C(=O)[N-]1.[Na+] [Dantrolene sodium salt],,,%NTCP activity (human NTCP [1]; [4]): 60.5703%; %NTCP binding (human NTCP [2]; [5]): 68.782%
CN(Cc1ccc(C(C)(C)C)cc1)Cc1cccc2ccccc12 [Butenafine Hydrochloride],123%,87.9%,
CCN(CC)CCOC(=O)c1ccc(N)cc1 [Procaine hydrochloride],122%,119%,
